# Assay results from PubChem BioAssay AID488969 (Vanderbilt High Throughput Screening Facility, 2010).
# Over roughly 110,000 compounds, “z-score” has its median near -0.1; the highest 2% begin near 2. This is one part of the list. The source made the active and inactive calls.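 The calls were made as follows: active = z-score in the third read window above 3 or below -3; inactive = the rest.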
# Target: Metabotropic glutamate receptor 8 (Rattus norvegicus) (UniProt P70579)
# Assay: rat mGluR8 modulators via GIRK flux, primary screen, cell-based, thallium flux, HTS (AID 488969)
# Details: HEK293 rat mGluR8, GIRK (G protein-gated inwardly rectifying potassium channel) thallium flux, FluoZin2; at 10 µM; stronger effect = higher value; submaximal glutamate (EC20) added with thallium
# Sequence of UniProt P70579 (P70579 whole entry, looked up): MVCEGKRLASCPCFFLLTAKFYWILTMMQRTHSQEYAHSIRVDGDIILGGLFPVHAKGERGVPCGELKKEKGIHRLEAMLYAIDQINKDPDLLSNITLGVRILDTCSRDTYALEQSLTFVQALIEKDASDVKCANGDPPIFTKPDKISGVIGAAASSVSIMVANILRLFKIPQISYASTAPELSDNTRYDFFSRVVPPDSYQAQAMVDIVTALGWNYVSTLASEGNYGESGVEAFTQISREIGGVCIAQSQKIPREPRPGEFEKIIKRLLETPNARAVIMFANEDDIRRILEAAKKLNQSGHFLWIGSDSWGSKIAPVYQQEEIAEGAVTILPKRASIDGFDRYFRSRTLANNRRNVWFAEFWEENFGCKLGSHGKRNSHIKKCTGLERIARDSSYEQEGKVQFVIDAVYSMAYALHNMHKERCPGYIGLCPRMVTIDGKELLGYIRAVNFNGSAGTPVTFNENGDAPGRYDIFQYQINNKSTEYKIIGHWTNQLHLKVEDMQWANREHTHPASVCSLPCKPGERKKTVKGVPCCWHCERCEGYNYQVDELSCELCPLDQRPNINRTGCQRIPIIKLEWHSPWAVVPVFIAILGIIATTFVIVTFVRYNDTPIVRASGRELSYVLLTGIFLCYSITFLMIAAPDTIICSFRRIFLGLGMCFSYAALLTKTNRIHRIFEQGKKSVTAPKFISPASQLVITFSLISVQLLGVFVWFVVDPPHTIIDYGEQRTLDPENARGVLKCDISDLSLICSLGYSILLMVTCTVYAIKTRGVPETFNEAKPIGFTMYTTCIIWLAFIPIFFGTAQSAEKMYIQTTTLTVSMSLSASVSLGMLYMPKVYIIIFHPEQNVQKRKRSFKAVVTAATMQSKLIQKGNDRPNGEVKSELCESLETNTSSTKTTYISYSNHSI
row,Structure (SMILES),z-score
1,CCOC(=O)c1cnc(SC2CC(=O)N(c3ccccc3)C2=O)nc1N (stereo not drawn),-0.244
2,CCCCNS(=O)(=O)c1ccc2nc(SCC(=O)Nc3sccc3C#N)[nH]c2c1,-1.36
3,CC(=O)N1CCCc2cc(S(=O)(=O)NC(C(=O)NCc3ccc(C)cc3)C(C)C)ccc21 (stereo not drawn),-0.339
4,Cc1ccc(OCC(O)CN2CCN(CC(O)COc3ccc(C)cc3Cl)CC2)c(Cl)c1 (stereo not drawn),-0.164
5,Cc1c(NC(=O)c2cccnc2C(=O)O)cccc1C(=O)O,-0.0324
6,Cc1ccc(OCCN2CCNCC2)c([N+](=O)[O-])c1,0.123
7,C=CCN(c1ccc(C(=O)Nc2cc(C)cc(C)c2)cc1)S(C)(=O)=O,-0.27
8,CN(C(=O)Cc1c[nH]c2ccccc12)C(C(=O)Nc1ccc2c(c1)OCO2)c1ccccc1 (stereo not drawn),-0.321
9,CCOC(=O)CC(NC(C)=O)c1ccc([N+](=O)[O-])cc1 (stereo not drawn),0.272
10,Cc1cccc(OCC(=O)NNc2c3ccccc3nc3ccccc23)c1,-0.312
11,Cc1nnc(SCc2cccs2)[nH]c1=O,-0.00591
12,CC(C)c1nnc(NC(=O)CN2C(=O)c3ccccc3C2=O)s1,0.896
13,CCCCOCC(O)CN1CCN(C(C)=O)CC1 (stereo not drawn),-0.536
14,O=C1c2ccccc2C(O)(c2ncc[nH]2)N1C1CCCCC1 (stereo not drawn),-0.34
15,COc1ccccc1CN1CCSCC1,-0.0181
16,O=C(COc1ccccc1[N+](=O)[O-])N/N=C/c1cccc(OC(=O)c2ccc3c(c2)OCO3)c1,0.0655
17,CCC(c1nnnn1CCc1ccccc1)N1CCN(C(=O)c2ccco2)CC1 (stereo not drawn),0.0857
18,CCC1C(=O)Nc2nc(-c3ccccc3)c(-c3ccccc3)n2N=C1C (stereo not drawn),0.449
19,Cc1noc(C)c1COc1ccc(C(=O)OCC(=O)NC2CCCCC2C)cc1 (stereo not drawn),0.0741
20,CNC(=O)CSc1nnc(-c2ccncc2)n1Cc1ccccc1,-0.216
21,O=C(COc1ccc2oc(-c3ccccc3)cc(=O)c2c1)Nc1ccccc1,-0.172
22,O=C1N(Cc2ccccc2F)c2ccccc2C12OCCCO2,-0.297
23,CC1CC(Nc2ccccc2N)=CC(=O)O1 (stereo not drawn),0.01
24,O=C(c1ccc(F)cc1)N1CCN(Cc2ccccc2Br)CC1,-0.454
25,CCCCN(CC)S(=O)(=O)c1ccccc1,0.171

row,Structure (SMILES),z-score
1,CCOC(=O)n1c(=O)n(Cc2ccccc2)c2ccccc21,-0.838
2,CCCNC(=O)c1ccc(Cn2c(=S)[nH]c3c([nH]c4ccc(OC)cc43)c2=O)cc1,-0.229
3,Cn1c(NC(=O)COc2ccccc2)cc(=O)n(C)c1=O,0.597
4,CCCSc1cc(NCCOC(C)=O)c([N+](=O)[O-])c2nonc12,2.48
5,COc1ccc(Cl)cc1Nc1nc(-c2sc(NC(=O)C(C)(C)C)nc2C)cs1,-0.194
6,CCOC(=O)CC1C(=O)NCCN1S(=O)(=O)c1ccc(Cl)c(Cl)c1 (stereo not drawn),0.108
7,O=C(Cn1nnc(-c2ccc(OCc3ccccc3F)cc2)n1)N1CCOCC1,-0.163
8,CN1C(=O)CSC1=NC12CC3CC(CC(C3)C1)C2,-0.449
9,O=C(NCn1cnccc1=O)c1ccccc1,0.063
10,Cc1nonc1OCCn1nnnc1N,-0.0665
11,O=C(CCSCCC(=O)NCc1ccco1)NCc1ccco1,-0.212
12,Cc1cc(C)nc(Sc2ccc(/C=C(\C#N)C(=O)Nc3ccccc3)o2)n1,-0.125
13,CCCCCCCCn1c(N2CCN(c3cccc(Cl)c3)CC2)nc2c1c(=O)[nH]c(=O)n2C,-0.178
14,Cc1occc1C(=O)Nc1c(F)c(F)c(F)c(F)c1F,-0.259
15,Cc1cc(-c2csc(NC(=O)c3cc4ccccc4o3)n2)c(C)n1C,-0.206
16,CCCn1nc(NC(=O)c2cccs2)c2cc3cc(OC)ccc3nc21,-0.896
17,O=C(COc1ccccc1)OC(C(=O)c1ccccc1)c1ccccc1 (stereo not drawn),-0.174
18,Cc1ccc(NC(=O)CCc2c(C)nc3ncnn3c2C)nc1,-0.0827
19,Cn1nnc2cc(C(=O)NC3CC3)ccc21,1.12
20,COc1ccccc1CNC(=O)c1ccccc1N,-0.312
21,COc1ccc(NC(=O)CSc2nnc(-c3ccc(C)cc3)n2N)cc1,0.826
22,O=C(Cc1ccccc1[N+](=O)[O-])NCCSCc1c(F)cccc1Cl,-0.104
23,Clc1ccc(C2=CSC3=NCCN23)cc1Cl,0.92
24,Cc1ccc(C)c(OCC(=O)Nc2nc3ccc([N+](=O)[O-])cc3s2)c1C,2.46
25,C(/C=C/C=C/Nc1ccccc1)=Nc1ccccc1,active: 16.2

row,Structure (SMILES),z-score
1,COc1cc(/C=N\NC(=O)c2ccc(Cn3cc(Br)c([N+](=O)[O-])n3)o2)cc(OC)c1O,-0.591
2,CC12CCC(C(=O)Nc3ccc4c(c3)OCCO4)(OC1=O)C2(C)C (stereo not drawn),0.112
3,O=c1cc(C23CC4CC(CC(C4)C2)C3)[nH][nH]1,-0.656
4,COC(=O)c1ccccc1NC(=O)c1ccccc1SC,-0.557
5,CCO/C(C)=C1\N=C(c2ccc(Cl)cc2)OC1=O,-0.358
6,O=S(=O)(c1ccc2c(c1)OCCO2)N1CCN(Cc2ccccc2)CC1,0.12
7,C=C(C)CNC(=S)Nc1sc2c(c1C(=O)OCC)CC(C)(C)OC2,0.296
8,Cn1c(N)c(C(=O)CCl)c(=O)n(C)c1=O,0.0911
9,Cc1cccc(-n2ccnc2SCC(=O)Nc2cc(C)on2)c1,-0.228
10,CCN(CC)S(=O)(=O)c1cccc(-c2nnc(SCc3ncc(-c4ccccc4)o3)n2C)c1,-0.456
11,N#CC1=C(N)Oc2ccc3ccc(O)cc3c2C1c1ccsc1 (stereo not drawn),-0.275
12,O=C(CN(c1ccc(Cl)cc1)S(=O)(=O)c1ccccc1)N/N=C/c1ccco1,-0.371
13,O=C(CSc1nnnn1-c1ccccc1)Nc1ccc(N2CCOCC2)c(Cl)c1,-0.613
14,Cn1cnnc1SC(C(=O)c1ccccc1)c1ccccc1 (stereo not drawn),-0.88
15,COc1ccc(N(CC(O)CN2C(=O)NC(C)(C)C2=O)S(=O)(=O)c2ccccc2)cc1 (stereo not drawn),-0.294
16,CC(C)C(=O)Nc1ccc(Nc2ccccc2)cc1,0.603
17,c1ccc(CNc2nnnn2-c2ccccc2)cc1,-0.197
18,CCOc1ccc(-n2c(C)nc3cc(C(=O)NCCN4CCOCC4)ccc32)cc1,-0.173
19,Cn1c(=O)c2[nH]c(-c3cccnc3)nc2n(C)c1=O,0.366
20,Cc1ccc(OCC(=O)N2CCC(N3CCCCCC3)CC2)cc1,0.172
21,CCC(C)NC(=O)COC(=O)c1cccnc1Nc1ccccc1F (stereo not drawn),0.219
22,COc1cc2cc(C)nc(Cc3cccc4ccccc34)c2cc1OC,-0.0707
23,COc1ccc(S(=O)(=O)N/N=C\c2ccc(OC)c(COc3ccc(C)cc3[N+](=O)[O-])c2)cc1,-0.436
